According to PubChem BioAssay (NCI):
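Each compound was tested at five concentrations against cells in 96-well plates for 48 hours. GI50: concentration for 50% inhibition of growth. Definition used: TGI = concentration required for complete inhibition of growth.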

tested on: NCI-H322M lung; assay: NCI anticancer screen, dose series, 48 h

Row | SMILES | GI50 | TGI
1 | Cc1ccc(C2CC(c3ccc(S(=O)(=O)NCCNc4nc(Nc5ccc(F)cc5)nc(N(C)C)n4)cc3)=Nc3c(N)nc(N)nc3N2)cc1 (stereo unspecified) | > 100 µM | > 100 µM
2 | C=C1CC[C@@H]2[C@]3(C)COC(c4cn[nH]c4-c4cccc(Cl)c4)O[C@@H]3CC[C@@]2(C)[C@@H]1C/C=C1/C(=O)OCC1O (stereo partly specified) | 10.4 µM | 22.1 µM
3 | CN(C)c1ccnc(CNCCSC2(c3ccccc3)c3ccccc3C=Cc3ccccc32)c1 | 2.79 µM | 16.9 µM
